About 14,000 (4.5%) of roughly 310,000 compounds showed an effect of 50% or more. Effects have a minus sign here. This is one part of the list.
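Further: peak tail current of the secondary pulse compared with the same well before compound.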

In this test the target is human ether-à-go-go-related gene (hERG) potassium channel (human, UniProt Q12809). The test can be described thus: primary screen, population patch clamp on CHO cells stably expressing hERG.
Chain of human ether-à-go-go-related gene (hERG) potassium channel (Q12809 whole entry, looked up): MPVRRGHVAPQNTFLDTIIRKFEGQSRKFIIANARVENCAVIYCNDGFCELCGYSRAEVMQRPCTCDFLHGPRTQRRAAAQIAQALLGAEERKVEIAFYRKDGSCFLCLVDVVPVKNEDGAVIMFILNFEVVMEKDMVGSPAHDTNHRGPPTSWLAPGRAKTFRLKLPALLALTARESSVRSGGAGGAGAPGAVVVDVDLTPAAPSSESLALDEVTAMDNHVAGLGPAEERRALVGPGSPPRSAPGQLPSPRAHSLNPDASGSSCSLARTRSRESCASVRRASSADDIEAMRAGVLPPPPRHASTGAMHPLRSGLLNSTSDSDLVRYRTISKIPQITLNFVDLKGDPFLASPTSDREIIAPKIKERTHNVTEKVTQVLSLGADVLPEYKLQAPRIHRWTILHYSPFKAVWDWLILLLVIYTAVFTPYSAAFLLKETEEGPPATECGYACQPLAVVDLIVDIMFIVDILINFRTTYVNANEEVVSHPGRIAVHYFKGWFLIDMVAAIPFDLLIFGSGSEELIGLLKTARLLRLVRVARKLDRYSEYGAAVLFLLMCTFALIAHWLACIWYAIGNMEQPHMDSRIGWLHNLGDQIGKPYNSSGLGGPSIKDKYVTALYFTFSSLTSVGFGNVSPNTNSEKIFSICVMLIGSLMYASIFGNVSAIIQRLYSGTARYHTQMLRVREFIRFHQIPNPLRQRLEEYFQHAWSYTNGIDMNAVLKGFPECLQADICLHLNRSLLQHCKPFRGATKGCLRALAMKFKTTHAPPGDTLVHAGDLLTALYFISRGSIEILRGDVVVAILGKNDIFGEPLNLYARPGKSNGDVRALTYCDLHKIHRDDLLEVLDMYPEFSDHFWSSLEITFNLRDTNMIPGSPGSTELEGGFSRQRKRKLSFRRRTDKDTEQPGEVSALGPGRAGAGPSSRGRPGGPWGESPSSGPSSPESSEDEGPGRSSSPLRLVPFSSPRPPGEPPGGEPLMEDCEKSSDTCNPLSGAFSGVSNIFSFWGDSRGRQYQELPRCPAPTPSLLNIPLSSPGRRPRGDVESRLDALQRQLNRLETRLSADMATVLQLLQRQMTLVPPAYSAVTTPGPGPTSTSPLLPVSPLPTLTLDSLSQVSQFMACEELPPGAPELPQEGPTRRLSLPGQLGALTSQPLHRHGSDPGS
As to `CCOC(=O)C1=C(O)C(=O)N(c2ccc(S(N)(=O)=O)cc2)C1c1cccc([N+](=O)[O-])c1` (centres unmarked), the “hERG current change (%, negative = inhibition) at 10uM” value is recorded as -8.34%. As for `Oc1c(Br)cc(Cl)cc1C=Nc1ccccc1Br`, the “hERG current change (%, negative = inhibition) at 10uM” value is reported as -9.32%. As for `CCOC(=O)C1CCCN(c2c(NCCc3ccc(C)cc3)c(=O)c2=O)C1` (centres unmarked), the figure is -3.1%; as for `OC(Cn1c2ccccc2c2ccccc21)C[n+]1ccccc1.[O-][Cl+3]([O-])([O-])[O-]` (centres unmarked), 7.25%; as for `c1cncc(CSc2nnc3ccc(-c4cccs4)nn23)c1`, -39%. Take `COc1sc(SC)cc1/C=N/NC(=O)c1ccncc1`: the “hERG current change (%, negative = inhibition) at 10uM” value is given as 16.1%. For the molecule `CCC1CCCCN1Cc1cc(OC)c(O)c([N+](=O)[O-])c1` (centres unmarked), the “hERG current change (%, negative = inhibition) at 10uM” value was 5.27%. For `CCN(CC)S(=O)(=O)c1cccc(C(=O)Nc2ccccc2)c1`, the “hERG current change (%, negative = inhibition) at 10uM” value was -28%.

`COc1cccc(OCC(Cn2cnc3ccccc32)OC(C)=O)c1` (centres unmarked): the “hERG current change (%, negative = inhibition) at 10uM” value was -27.3%. Next, `CS(=O)(=O)N1CCc2cc(C(=O)Nc3ccccc3Br)ccc21`: -3.16%. As for `CCS(=O)(=O)N1CCCC(C(=O)NCCCN2CCCC2=O)C1` (centres unmarked), the figure is 10.8%; as for `CCOc1cc(/C=N/NC(=O)c2ccccc2-n2cccc2)ccc1O`, -22.8%; as for `Cc1ccc(N2C(=O)NC(=O)/C(=C/c3cnn(-c4ccc(C)cc4)c3)C2=O)cc1`, 26.1%. With `Brc1c(-c2ccccc2)nc2n1Cc1ccccc1-2`, the “hERG current change (%, negative = inhibition) at 10uM” value amounted to 21.8%. As for `COc1ccc(CNC(=O)CCC(=O)N2CCN(S(=O)(=O)c3ccc(Cl)cc3)CC2)cc1`, the “hERG current change (%, negative = inhibition) at 10uM” value worked out at 22.3%. As for `CN1CCc2c(sc(NC(=O)c3ccco3)c2C(N)=O)C1.Cl`, the figure is -17%. For the molecule `Cc1ccn2cc(-c3ccc4c(c3)NC(=O)CO4)nc2c1.Cl`, the “hERG current change (%, negative = inhibition) at 10uM” value amounted to 2.71%. Turning to `O=C(O)C(=O)O.O=[N+]([O-])c1ccc(OCCN2CCNCC2)cc1`, the “hERG current change (%, negative = inhibition) at 10uM” value is given as -76%. `O=C(CSc1ncccn1)NC1CCCc2ccccc21` (centres unmarked): the “hERG current change (%, negative = inhibition) at 10uM” value is -1.51%. With `Cc1ccc(S(=O)(=O)c2cc3ccccc3nc2N)cc1`, the “hERG current change (%, negative = inhibition) at 10uM” value is recorded as 12.3%. Turning to `CCc1nccn1CCC(=O)NC1CCCc2c1cnn2-c1ccc(F)cc1F` (centres unmarked), the “hERG current change (%, negative = inhibition) at 10uM” value worked out at 20.3%. Next, `CC(OC(=O)CCN=C1NS(=O)(=O)c2ccccc21)C(=O)Nc1ccc(S(N)(=O)=O)cc1` (centres unmarked): -12.1%; `Cc1cc(-c2nnc(CCC(=O)NC(c3ccccc3)c3ccccc3)o2)no1`: 26.5%. Turning to `O=C(NCC(c1ccco1)N1CCCC1)c1cccc(NS(=O)(=O)c2ccc(Br)cc2)c1` (centres unmarked), the “hERG current change (%, negative = inhibition) at 10uM” value is listed as -27.5%. Turning to `CCCC(CCC(=O)Nc1ccc(C(=O)OCC)cc1)C(=O)O` (centres unmarked), the “hERG current change (%, negative = inhibition) at 10uM” value is 20.5%.

In the case of `O=S(=O)(Nc1ccccn1)c1cc(Cl)ccc1Cl`, the “hERG current change (%, negative = inhibition) at 10uM” value amounted to 9.22%. In the case of `Cc1ccc(NC(=O)CCCc2ccccc2)nc1`, the “hERG current change (%, negative = inhibition) at 10uM” value was -7.9%.

For the molecule `O=C(CSc1cccc[n+]1[O-])c1ccccc1Br`, the “hERG current change (%, negative = inhibition) at 10uM” value was 5.15%. As for `CCOC(=O)N1CCC(NC(=O)COc2cc(=O)n(C)c3ccccc23)CC1`, the figure is 6.6%; as for `O=C(NCc1ccncc1)C1CCN(C(=O)c2cccc(Cl)c2)CC1`, -6.43%.

With `Cc1cc(C)c(S(=O)(=O)c2ccccc2)c(=O)[nH]1`, the “hERG current change (%, negative = inhibition) at 10uM” value was found to be 20.6%. On to `COc1ccccc1-n1c(SCC(=O)Nc2ccccc2F)nc2[nH]ncc2c1=O`, for which the “hERG current change (%, negative = inhibition) at 10uM” value is -32%. Take `CC(=O)c1ccc(OCc2ccccc2)c(C)c1O`: the “hERG current change (%, negative = inhibition) at 10uM” value came out at 4.32%. Turning to `O/N=C/c1cccnc1Sc1ccccc1`, the “hERG current change (%, negative = inhibition) at 10uM” value was -40.4%. In the case of `O=C(Nc1ccc(N2CCOCC2)cc1)c1cccc(S(=O)(=O)N2CCCC2)c1`, the “hERG current change (%, negative = inhibition) at 10uM” value is reported as 1.96%. As for `Cn1nc(C(C)(C)C)c([N+](=O)[O-])c1C(=O)N1CCCCCC1`, the figure is 13.4%; as for `COCCN(C(=O)C1CC(=O)N(Cc2ccc(C)cc2)C1)c1c(N)n(CC(C)C)c(=O)[nH]c1=O` (centres unmarked), -6.25%; as for `Cc1cccnc1Nc1nc(-c2ccc(O)c(O)c2)cs1`, 0.613%. As for `CC(=O)Nc1ccc(S(=O)(=O)N2CCN(Cc3ccccn3)CC2)cc1.O=C(O)C(=O)O`, the “hERG current change (%, negative = inhibition) at 10uM” value is listed as -0.877%. As for `C=CCOc1ccc(C(=O)NC2CCCCC2)cc1`, the “hERG current change (%, negative = inhibition) at 10uM” value is 5.59%. Consider `Cc1cccc2cc(C(c3nnnn3C3CCCC3)N3CCOCC3)c(=O)[nH]c12` (centres unmarked), for which the “hERG current change (%, negative = inhibition) at 10uM” value stood at 3.62%.

On to `C/C(=N\Nc1nc(N2CCOCC2)nc(N2CCOCC2)n1)c1cccs1`, for which the “hERG current change (%, negative = inhibition) at 10uM” value came out at 2.06%. On to `COCCn1c(C)cc(C(=O)CSc2nnc(-c3cccnc3)n2-c2ccccc2F)c1C`, for which the “hERG current change (%, negative = inhibition) at 10uM” value was determined as 0.351%. As for `CSc1nsc(SC)c1NC(=O)Nc1ccccn1`, the figure is -10%. Take `CC(c1ccon1)N(C)Cc1cn(C)nc1-c1cccc(Cl)c1` (centres unmarked): the “hERG current change (%, negative = inhibition) at 10uM” value is -6.35%. As for `COc1ccccc1NC(=O)C1=C(C)NC(=O)NC1c1cccs1` (centres unmarked), the figure is 8.54%; as for `CC1(C)Cc2c(C#N)c(N)sc(=S)c2CS1`, 5.54%; as for `Cc1ncoc1C(=O)Nc1ccc(Oc2ccccc2)cc1`, -38.8%. As for `O=C(CNC(=O)c1ccccc1)N/N=C/c1ccc([N+](=O)[O-])s1`, the figure is -11.1%. Regarding `C=CCN1C(=O)NC(c2ccc(OC)cc2)(C(F)(F)F)S/C1=C(\C#N)c1nnc(N2CCOCC2)n1-c1ccccc1` (centres unmarked), the “hERG current change (%, negative = inhibition) at 10uM” value is recorded as -62.4%. Take `Cc1ccc(C)c(NC(=O)c2c(Cl)nc3ccccn23)c1`: the “hERG current change (%, negative = inhibition) at 10uM” value is -0.767%.

With `Cc1cccc(C(=O)Nc2c(C(=O)N(C)C)cnn2-c2ccccc2)c1`, the “hERG current change (%, negative = inhibition) at 10uM” value worked out at 7.81%. For `Cc1ccc(NS(=O)(=O)c2ccc(OCC(=O)Nc3cccc([N+](=O)[O-])c3)c(C)c2)cc1`, the “hERG current change (%, negative = inhibition) at 10uM” value is on record as -35.7%. Next, `CN(C)CCN=Cc1c(O)n(Cc2ccccc2)c(=O)c2ccccc12`: -52.2%. Take `CC(C)Cn1c(N)c(C(=O)CSc2ccc3c(c2)OCCO3)c(=O)n(C)c1=O`: the “hERG current change (%, negative = inhibition) at 10uM” value turned out to be 6.28%. As to `COC(=O)C1=C(C)N(Cc2ccccc2)C(=NCc2cc(OC)c(OC)c(OC)c2)N[C@H]1c1ccccc1`, the “hERG current change (%, negative = inhibition) at 10uM” value is reported as -27.8%.

Source of the values: PMC4336329 (PLoS ONE, 2015).
